This is one part of the list.
tested on: PfAP2-HC AP2 domain (GST-tagged); assay: gcPBM binding intensity (ln(normalized median fluorescence intensity)); higher = stronger DNA binding
How it was run: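 An Agilent 4 × 180k array carrying primer-extended double-stranded 36-bp intergenic genomic probes and negative controls received GST-tagged P. falciparum DNA-binding domains expressed in E. coli, about 25 μg on average, for 1 h. The binding buffer contained 1× PBS, 1% milk, 0.2 mg/ml BSA, 0.5% salmon testes DNA and 0.03% Triton X-100. Binding intensity is the top Masliner-normalised natural-log median intensity across replicate spots of either probe orientation, read after Alexa488 anti-GST antibody staining and a 488 nm scan.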

Sequence	gcPBM binding intensity (ln)
TAATTATCACATTGCACACACATTTCCTTTTACATT [CACACA_site3443]	10.3
GGCATACACAGACACACACACACACCCACATATATA [CACACA_site591]	11.2
AAAAGAATGAAACATAATAAATTACATTAAAATAAT [CACACA_negctrl_site897]	9.66
AACTTATTAAGCCCTCCACATTTCTCTACTACAACT [CACACA_negctrl_site1552]	10
TCTATTTTTCTAATTTGTACATAGCTTTGAGTTAGT [XGTACX_site8977]	9.6
AGATAAAATATATACACACACATAAATACGTACAAA [CACACA_site1086]	10.3
AACTTCTTTTTTATAACACACAAAATATATATACAA [CACACA_site282]	9.72
TTTTTTTTTTGTAATTGTACTTTTTTAATACTTCTA [XGTACX_site4195]	9.58
TATACATATATATACACACACATATATATATATATA [CACACA_site4]	9.87
TATATATATATATTCACACATAAATATATGCACCCA [CACACA_site4263]	9.63
ATTTTTGTGACTAAGACATGCATAAGAGTAAAGAAA [TGCATGCA_site619]	9.6
ACATATATTATATAACGTACATAACACTATTTCCTT [XGTACX_site6938]	9.83
AATCATTTATGGAAAGCATGCTAAATTAGAGTATAC [TGCATGCA_site172]	9.65
TAATATCATTTAGACACACACTCTTACAATCTGTAA [CACACA_site2590]	9.81
ATCTAAACCTTTTGAGCACACATATATATATATATA [CACACA_site8526]	9.78
ATGGGGAATAATGAATGTACACAAATAAAAAGTTGG [XGTACX_site4015]	9.69
TAAAAATAAAAATAACGTACATACATACTTATATAT [XGTACX_site3745]	9.53
TAATTTTTTTAAAACACACAAATATGTAAATATGTA [CACACA_site7769]	9.51
TAAGTCGCCAAAAGGTGTACACATAATGCATTATCA [XGTACX_site8852]	9.87
AGTATAGTTATAAATTGTACATATTATTTATTTTAT [XGTACX_site949]	9.69
GGGAATTATGAAAAAAGTACAGAACAAAAGTAAAAG [XGTACX_site2861]	9.83
ATATAGTAAAATTATACACACATGAATTTTCCCATG [CACACA_site1770]	9.9

Sequence	gcPBM binding intensity (ln)
TACAAAAATGAAAAAAGTACATATCATTTAATATAA [XGTACX_site8066]	9.7
TTTTTTTTTTTTTTTTGTACTCATAAAAATATATTA [XGTACX_site3458]	8.98
CATATATATATATATACACACACACCGTCCGTGTTA [CACACA_site8975]	10.1
ATTACATGATATATCACACACACATATAAATATATA [CACACA_site2830]	10.5
CACATATAGTTATATGCACACATCTTACACATATAT [CACACA_site3692]	10.3
TATCTGTATTTATATACACACATATTCTTTTTACAC [CACACA_site4798]	10.2
AAAATCACAAAACACACACACACAAAAAAAAAAAAA [CACACA_site1443]	10.5
GTTTGAAGAACTATAAATGTATAAATAAAAGTTTAG [TGCATGCA_negctrl_site222]	9.54
AAAAAAGTAAAAAAAGCACACACGAAAAAAAATAAA [CACACA_site2233]	10.1
ATGGTGCAACATTATGCACACCGTTAAATAACTAAT [CACACA_site9280]	9.61
CATGGGCAAATATTCTCACACATAAACATAAACATA [CACACA_site4597]	9.52
GAATAAATAAATAAATGTACATATATATTTATTTAT [XGTACX_site243]	9.61
GTTCGAAGTATAATTTGTACATATAAAATGGTTCCC [XGTACX_site382]	9.56
ATATGTATTTATATATGTTTGAATTTTTTTTTTTTT [CACACA_negctrl_site5]	9.45
ATTTGATCAACAAAACGTACACATATTTTCATGTGT [XGTACX_site447]	10.1
AAAACAGTGACAACTCGTACTTATATTTTTTTTTGT [XGTACX_site4968]	9.65
AGGCCCTATGTTGTTACACACATAGAATGATACATC [CACACA_site1266]	9.71
AAATTATTATGAAATGGAAAATGCATAAATTGTTTT [XGTACX_negctrl_site206]	9.63
ATTAAATAATAATAATGTACGTATTATATTAATACA [XGTACX_site5439]	9.72
TAAAATTTAAAATATACACACAAAAAGTTATTACAA [CACACA_site4080]	9.73
CTCTTTAAAAATATGGGTACAAAAAAAAAAAAAATA [XGTACX_site6185]	9.22
ATTCTTTACTCATAAAATTATATTATATAAACTTTT [XGTACX_negctrl_site554]	9.67

Sequence	gcPBM binding intensity (ln)
AATACGACAAACAAATGTACAAATAAATATTCGCGT [XGTACX_site6427]	9.78
TGAGAAAATTAAAAGGTGCTCAGAAATTTTATATTA [GTGCAC_site9954]	9.6
TTTTCTTTTAATATTTTTAATAATTATATTTTGAAA [XGTACX_negctrl_site495]	9.31
AAATTACTAATGTGCACACATACTAACGTTTAAATA [CACACA_site3572]	9.92
AAAAATGTAAAGTGCGTGCACAAAATATTTGGAAAA	9.89
CAAAGATAAAATGATGCACACAAAAGGGTGTAATAT [CACACA_site8499]	10.1
TATATTTATTTATATGTATGCATGTCTGTATATGCT [TGCATGCA_site339]	9.49
AAAGTACAATCATAATCACACGTGTCTATTATATAC [CACACA_site8103]	10.1
ACATGGTTTACACGTGCATGTGGATGACTGGACATT [TGCATGCA_site640]	9.9
TTAAAATTAAAATACGTACACACCTTATCTTTTTGG [CACACA_site7982]	9.86
GAAAAGATTTAAAAATGTACAAAAGAAAAAAAAAAA [XGTACX_site6916]	9.6
TTATTATTTATTTTTTATTATTATTATTTTTTTTTA [XGTACX_negctrl_site76]	9.63
CATATATTTTGAAACACACACATATAAAATATACAT [CACACA_site6664]	10.6
AAGTATTTCCTAAAATGTACATATAAATAAGTATAT [XGTACX_site1282]	9.59
AAATCTTAATAAAGTTGTACATAATTATGTTTAATA [XGTACX_site3348]	9.6
TTTTTTACTATATCAATTACAAAACAAAAAAAAAAA [GTGCAC_negctrl_site683]	9.2
TATCATTTGGTCTTTTACTTTTTCTGTTTTTTTTTT [CACACA_negctrl_site976]	9.91
AAATATGTTTCAAAAAGTACATTTCTATCTTTTTTT [XGTACX_site7178]	9.61
TGATAAAATATTAAATTATTTCTTTATTTAAAGATT [CACACA_negctrl_site370]	9.33
TGGTTATAATTGTACGCATGTAATTACATATTCTCT [TGCATGCA_site599]	9.75
AATATGCCTCCCCAAAAAAAATATATATATATTTAT [GTGCAC_negctrl_site716]	9.46
TATATTTAAATATATACACACATTATCATTTTCATA [CACACA_site1708]	9.77

Sequence	gcPBM binding intensity (ln)
GAATTTTAAATAAACATATAAACAGAAAAAAAAAAA [TGCATGCA_negctrl_site149]	9.51
TAGTTTTCTTAAAGATGTACTTATTAAAAATAAACT [XGTACX_site1001]	9.28
AATGATTGATTTTATTGTACGTACTCGGAATATGGT [XGTACX_site4976]	9.62
TATAGATAAATTATTTGTACTTATAAAATTATTATA [XGTACX_site2870]	9.44
TACATAACTTTAATCACACACAAACAAACACATACA [CACACA_site6235]	10.3
AAAATACATGGACACACACACACACCGATATATATA [CACACA_site5885]	10.7
ATATAATATATATACAAACACACAATTGTGTCCACA [CACACA_site1748]	10.1
AAATATACATATATATGTACATATAAATATATTTTA [XGTACX_site5266]	9.71
TTATCTTACATATATCATTAAATCATATAACAAAAA [XGTACX_negctrl_site517]	9.14
AACCTCATGGACATATGTACACATATACAATTATTT [XGTACX_site6533]	9.84
CACAAATATACAAATACACACAAATATACGCATATA [CACACA_site2384]	10
GTTATATTTAAAATAGTGCAATAAAAATAATAATAT	9.69
CCTTTATAATTGGAAACACACATATAAAGTATATAT [CACACA_site3900]	9.64
TTATGTATTTTAAATGGTTTTATTATAAAGTTTAAT [CACACA_negctrl_site1470]	9.5
TAAAAATTCAATTGCACACGCACATATTTTAATAAG [CACACA_site2014]	9.68
AATATAATAATAAAAACACACACGTTGATTGTATTA [CACACA_site2381]	9.98
CGTATGCAAGGAACCACACACACACCCATAAATGTA [CACACA_site749]	10.2
AAAAAATAGACATATACACACATATGTATTTATAAT [CACACA_site5225]	10.2
TTAAAAATAAAAAATACACACTCTAGTCCATGTAAC [CACACA_site3640]	10.1
ATTTCATATAGTGTAGTGCAATTTTAAGCATCAAGG	9.68
CCTATAATAAATAATACACACATATTGTAAATATAT [CACACA_site7496]	9.92
ATGTCATTATATACATGTACGCATATCTGTTTATCC [XGTACX_site3947]	9.85

— the supplement of paper PMC11417369
